# ChEMBL document CHEMBL1201862, “PubChem BioAssay data set” (2004)
# Several values for one entry are separate records, joined by “and”; a condition that tells them apart may be missing. Equal values may be shown once.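 Protocol summary: plate cells (96-well), add compound at 5 concentrations, incubate 48 h, interpolate endpoints linearly. GI50 is the concentration that inhibits growth by half.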 Activity calls are given as the source filed them. No stated cut-off is given here; in the data, active = GI50 up to about 1.1 µM and inactive = higher.
# Tested on: NCI-H322M
# Assay: NCI anticancer screen, dose series, 48 h
row,Compound,GI50
1,CC/N=C(\N)CSS(=O)(=O)O,inactive: > 100 µM
2,CCOC(=O)C1C(=O)CC(C)(O)C(C(=O)OCC)C1c1ccc(OC)cc1 (stereo not drawn),inactive: > 100 µM
3,O=C(O)c1c(-c2nccc3ccccc23)[nH]c(-c2ccccc2)c1S(=O)(=O)O,inactive: > 100 µM
4,CC1=NN(c2nc(N)nc(/C(C#N)=C/c3ccc([N+](=O)[O-])o3)n2)C(C)(C)C1,inactive: 22.5 µM
5,C/N=c1/ss/c(=N\C(SC)=[N+](C)C)n1C.[O-][Cl+3]([O-])([O-])[O-],inactive: > 100 µM
6,c1ccc2c(c1)c1c3c(c4c(n32)=NCCN4)CCC1,inactive: 33.5 µM
7,Cc1cn([C@@H]2O[C@H](CO[Si](C)(C)C(C)(C)C)[C@]3(O[C@H]3C(=O)NN)[C@H]2O[Si](C)(C)C(C)(C)C)c(=O)[nH]c1=O,inactive: 12.5 µM
8,COc1cc(-c2ccccc2)cn2c1nc1ccccc12,inactive: > 10 µM
9,CC(C)CNc1nc2ncnc(N)c2[nH]1,inactive: > 100 µM
10,O=C(O)CCC1CCc2cccc3occ1c23 (stereo not drawn),inactive: > 100 µM
11,O=C(CCc1ccc(O)c(O)c1)NCCc1cc(OCc2ccccc2)cc(OCc2ccccc2)c1,inactive: 15.5 µM
12,CC(=O)N1CCN(C=S)CC1,inactive: > 100 µM
13,Cc1cc(=O)oc2c(C)c3oc(CBr)c(Br)c3cc12,inactive: 50.2 µM
14,CCCN1CN(C(C(=O)N[C@@H]2C(=O)N3C(C(=O)O)=C(C)CSC23)c2ccccc2)CSC1=S (stereo partly drawn),inactive: > 100 µM
15,CC1C[C@]2(C)C(=O)Nc3ccccc3[C@@H]2Nc2ccccc21 (stereo partly drawn),inactive: 22 µM
16,CCOC(=O)C1C(=O)CN2CCc3c([nH]c4ccccc34)C12C(=O)OCC (stereo not drawn),inactive: > 100 µM
17,OCC(O)CNc1ccnc2cc(Cl)ccc12 (stereo not drawn),inactive: > 100 µM
18,CCOC(=O)/C(=C\NC(C)(C)C)c1nc2ccccc2o1,inactive: 43.6 µM
19,O=CC(I)=C(c1ccccc1)c1ccccc1,inactive: 13 µM
20,N#CC(C#N)=c1c2nsnc2c(=C(C#N)C#N)c2nsnc12,inactive: 1.73 µM
21,Cc1ccc(NC(=O)/C(=N\Nc2ccc([N+](=O)[O-])cc2[N+](=O)[O-])C2C(=O)NC(=O)NC2=O)cc1,inactive: > 100 µM
22,C=C(C(=C)P(=S)(C(C)C)C(C)C)P(=S)(C(C)C)C(C)C,inactive: > 100 µM
23,COc1ccc(C(=O)NC2=C(Cl)C(=O)c3ccccc3C2=O)cc1,inactive: 6.43 µM
24,Cc1ccc(S(=O)(=O)OCCOCCOCCOCCOCCOS(=O)(=O)c2ccc(C)cc2)cc1,inactive: 26.7 µM

row,Compound,GI50
1,CC(=O)NC1c2ccccc2C(C)(C)C12CCC1(CC2)OCCO1 (stereo not drawn),inactive: > 100 µM
2,N/C(=N\Nc1ccc(C(=O)O)cc1)c1cnccn1,inactive: > 100 µM
3,CSc1nc2c(c(=O)n1C)N=C(c1ccc([N+](=O)[O-])cc1)CC(c1ccccc1)N2 (stereo not drawn),inactive: > 100 µM
4,COC(=O)C1=C(c2cc(OC)c(OC)c(OC)c2)O[C@H](c2ccc3c(c2)OCO3)[C@H]1COC(C)=O,inactive: 60.5 µM
5,CC(O)CC(O)(C(F)(F)F)C(F)(F)F (stereo not drawn),inactive: > 10 µM
6,N#Cc1sc2c(c1OC(=O)c1ccc(C(F)(F)F)cc1)c(=O)n(-c1ccccc1)c(=S)n2-c1ccccc1,inactive: 39.7 µM
7,C\C(=N/N=C1/C(=C\N(C)C)C(=O)NC(=O)N1C)c1ccc(Cl)cc1,inactive: > 100 µM
8,CCCC(=O)NC(Nc1ccc(F)cc1)(C(F)(F)F)C(F)(F)F,inactive: > 100 µM
9,Cc1ccc(C(=O)CC(Cl)=C(Cl)Cl)cc1,inactive: > 100 µM
10,COc1ccc(N2C(=O)C3CC4=CC(=O)C[C@H]4[C@H]32)cc1 (stereo partly drawn),inactive: 49.2 µM
11,COC1OC(COC(=O)NCCCCC(=O)C(F)(F)C(F)(F)C(F)(F)C(F)(F)C(F)(F)C(F)(F)C(F)(F)F)C(O)C(O)C1O (stereo not drawn),inactive: 17.8 µM and inactive: 12.2 µM
12,S=P(c1ccccc1)(c1ccccc1)C1(C2(P(=S)(c3ccccc3)c3ccccc3)CC2)CC1,inactive: > 100 µM
13,CCCCc1ccc(Nc2cc(=O)n(C)c(=O)[nH]2)cc1,inactive: 54.5 µM
14,c1ccc2cc(CNCCCCNCCCNCc3ccc4ccccc4c3)ccc2c1,inactive: 1.49 µM
15,COC(=O)C1(C)CCCC2(C)C3CCC4CC3(C=C4CO)CCC12 (stereo not drawn),inactive: 82 µM
16,Cc1cccc(-c2cc(=S)c3cc(N4CCCC4)ccc3[nH]2)c1,inactive: > 100 µM
17,Cc1c(NC(=S)NN)c(=O)n(-c2ccccc2)n1C,inactive: > 100 µM
18,CN(CCNC(=O)c1n[nH]c2c1ccc1ccccc12)CCNC(=O)c1n[nH]c2c1ccc1ccccc12,inactive: 2.55 µM
19,CC1(C)OC[C@@H]([C@@]2(COC(c3ccccc3)(c3ccccc3)c3ccccc3)CC=CC(=O)O2)O1,inactive: 53 µM
20,C=C1C(=O)C[C@H]2C(=C)C(=O)O[C@@H]2C2C1CC[C@@]2(C)O (stereo partly drawn),inactive: > 100 µM
21,Cc1ccc([N+](=O)[O-])cc1S(=O)(=O)Nc1ccc(C2=NN(S(=O)(=O)c3cc([N+](=O)[O-])ccc3C)C(c3cccs3)C2)cc1 (stereo not drawn),inactive: 23.4 µM
22,CC(C)CC(=O)OC[n+]1ccc(-c2c(COC(=O)NC(C)C)c(COC(=O)NC(C)C)c3n2CCC3)cc1,inactive: > 100 µM
23,COC(=O)C1=C(\O)C[C@@]2(C)CC[C@@H](C(=O)OC)C2C/C=C\1C(=O)OC (stereo partly drawn),inactive: > 100 µM
24,N=C(N)NS(=O)(=O)c1ccc(NCCc2c3ccccc3nc3ccccc23)cc1,inactive: > 100 µM

row,Compound,GI50
1,Cc1ccc(S(=O)(=O)NNC(=O)c2cc(C)ccc2NC(=O)C23CC4CC(CC(C4)C2)C3)cc1,inactive: 26.7 µM
2,FC(F)(Sc1ccccc1)c1nc2ccccc2o1,inactive: > 100 µM
3,CCOC(=O)C(NC(=O)c1nc[nH]c1[N+](=O)[O-])C(C)C (stereo not drawn),inactive: > 100 µM
4,O=C1N/C(=N/N=C/C(O)C(O)C(O)CO)N/C1=C\c1ccco1 (stereo not drawn),inactive: > 100 µM
5,CCOP(=O)(O)C1C(CO)OC(n2ccc(=O)[nH]c2=O)C1O (stereo not drawn),inactive: > 100 µM
6,N#CC(/N=N/c1ccccc1)c1nc2ccccc2o1 (stereo not drawn),inactive: 90.6 µM
7,CCOC(=O)C1Sc2ccccc2N=C1C (stereo not drawn),inactive: > 100 µM
8,O=C1/C(=C/c2ccc3c(c2)CCC3)Cc2cc3c(cc21)CCC3,inactive: > 100 µM
9,CCOC(=O)Cc1ccc2c(c1O)C(=O)c1c(ccc(CC(=O)OCC)c1O)C2=O,inactive: > 100 µM
10,O=C1NC(=S)NC1C(Cc1ccccc1)c1ccco1 (stereo not drawn),inactive: > 100 µM
11,COC(=O)C(=Cc1cc(OC)c(OC)c(OC)c1-c1cc2c(cc1C1(C)OCCS1)OCO2)C(=O)OC (stereo not drawn),inactive: 49.9 µM
12,c1ccc([P+](c2ccccc2)(c2ccccc2)C2c3ccccc3-c3ccccc32)cc1,inactive: 1.96 µM
13,CCOC(=O)C(=O)Nc1nc2ccc(C)cc2s1,inactive: > 100 µM
14,COc1ccc(C(SCCO)(c2ccc(OC)cc2)c2ccc(OC)cc2)cc1,inactive: 24.8 µM
15,C=C(Cl)C(Cl)(CBr)CCC(Cl)C(C)C (stereo not drawn),inactive: 3.78 µM
16,CC(=O)Oc1ccc(O)c2c1CCCC2,inactive: > 100 µM
17,O=S1(=O)N=C(NCc2c[nH]c3ccccc23)N(c2ccccc2)c2ccncc21,inactive: > 100 µM
18,Cc1ccc(/N=N/c2c(C)c(C#N)c(=S)n(C3OC(CO)C(O)C(O)C3O)c2-c2ccccc2)cc1 (stereo not drawn),inactive: > 10 µM
19,O=C(/C=C\c1ccc(-c2ccccc2)cc1)c1cccs1,inactive: > 95.7 µM
20,CC(=O)OCCn1c(Cc2ccc(C)cc2)nn(C(C)=O)c1=O,inactive: > 100 µM
21,Cc1ccccc1C1SCc2nc3ccccc3n21 (stereo not drawn),inactive: > 100 µM
22,CC1(C)OC[C@@H](O)[C@H](C#N)CO1,inactive: > 100 µM
23,CC1(C)O[C@H]2OC(CO[Si](C)(C)C(C)(C)C)C(N=[N+]=[N-])[C@H]2O1 (stereo partly drawn),inactive: 22.9 µM
24,c1ccc2c(c1)NC(C1OC3CCCN3C1C1Nc3ccccc3S1)S2 (stereo not drawn),inactive: > 100 µM

row,Compound,GI50
1,O=C1OCC/C1=C/c1ccc(/N=N/c2c(O)ccc3ccccc23)cc1,inactive: 27 µM
2,O=C(c1cccs1)N(C(=O)N1CCC(c2ccccc2)CC1)c1ccccc1,inactive: > 100 µM
3,O=C1NC2CCCCC2NC1=C(C(=O)c1ccccc1)C(=O)c1ccccc1 (stereo not drawn),inactive: 80.5 µM
4,Cc1ccc(S(=O)(=O)OC2CSSCC2OS(=O)(=O)c2ccc(C)cc2)cc1 (stereo not drawn),inactive: 18.3 µM
5,CCCNC1=C(C(=O)OCC)C(=O)CO1,inactive: > 100 µM
6,Cc1ccc(F)cc1NC(=O)O/N=C(\Cl)C(C)C,inactive: 17.9 µM
7,O=[N+]([O-])c1nccn1CC(O)c1ccc(F)cc1 (stereo not drawn),inactive: > 100 µM
8,CC1=C(C(=O)NCc2ccccc2)C(c2ccc(C3C(C(=O)NCc4ccccc4)=C(C)NC(C)=C3C(=O)NCc3ccccc3)cc2)C(C(=O)NCc2ccccc2)=C(C)N1,inactive: 18 µM
9,CCCCN1C(=O)N(c2ccc(OCC)cc2)C2N(CCCC)C1C(C)(C)C2(C)C (stereo not drawn),inactive: 31.7 µM
10,CCOC(=O)c1c(Br)c(-c2ccc(Br)cc2)c(Br)n1C,inactive: 57 µM
11,COc1cc(=O)oc(/C=C/C=O)c1C,inactive: 82.6 µM
12,NCC1(N2CCOCC2)C2CCCC21CO (stereo not drawn),inactive: > 100 µM
13,COc1ccc(/C=C/C(=O)N[C@@H]2C(=O)N3[C@@H]2SC(C)(C)[C@@H]3C(=O)O)cc1OC,inactive: > 100 µM
14,NC(CCCCNc1ccn(C2OC(CO)C(O)C2O)c(=O)n1)C(=O)O (stereo not drawn),inactive: > 100 µM
15,O=[N+]([O-])c1ccc(/C=C/c2ccc(/N=N/c3ccc(/C=C/c4ccc([N+](=O)[O-])cc4S(=O)(=O)O)c(S(=O)(=O)O)c3)cc2S(=O)(=O)O)c(S(=O)(=O)O)c1,inactive: > 83.9 µM
16,O=C(OC1C=C=CS(=O)(=O)CC#C/C=C\1)c1cnc2ccccc2n1 (stereo not drawn),inactive: > 100 µM
17,CC12CC(OC(=O)[C@]1(C)O)[C@@H]([C@]1(O)CC[C@H]3[C@@H]4C[C@H]5O[C@]56[C@@H](O)C=CC(=O)[C@]6(C)[C@H]4CC[C@@]31C)C2 (stereo partly drawn),inactive: 15.7 µM
18,COc1cc(CC(C)NC(C)=O)cc(OC)c1 (stereo not drawn),inactive: > 100 µM
19,Oc1cc(-c2ccc3ccccc3c2)nc2ncccc12,inactive: 19 µM
20,Nc1ncnc2c1ncn2C1OC(CO)CC1O (stereo not drawn),inactive: 26.9 µM
21,CNC=O,inactive: > 10000 µM
